31 molecules from publication PMC9911399, “Two distinct binding modes provide the RNA-binding protein RbFox with extraordinary sequence specificity” can be followed below.

Changes are numbered by the printed parent chain; changes in the protein carry UniProt numbers. The list shows a part of the results.

To fix the notation:
T1: RBFOX1 RRM RbFoxmut (Fox-RRM*) (Homo sapiens, UniProt Q9NWB1 109-208, R118D;E147R;N151S;E152T)
T1 sequence: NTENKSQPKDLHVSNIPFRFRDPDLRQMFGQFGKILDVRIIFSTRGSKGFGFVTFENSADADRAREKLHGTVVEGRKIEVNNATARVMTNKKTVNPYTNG

B1: AAGGCUC (DNA:RNA)
RNA: GGGAGACCGGAAUUCAGAUUGUCCAAGGCUCUUAAAUCCCGUCGUAGCCACCA
DNA 1: CAATCTGAATTCCGGTCTCCC
DNA 2: TGGTGGCTACGACGGGATT
B2: UUGCGGG (DNA:RNA)
RNA: B1 RNA with A25U, A26U, G28C, C29G, U30G, C31G
DNA 1: CAATCTGAATTCCGGTCTCCC
DNA 2: TGGTGGCTACGACGGGATT
B3: ACGCAGA (DNA:RNA)
RNA: B1 RNA with A26C, G28C, C29A, U30G, C31A
DNA 1: CAATCTGAATTCCGGTCTCCC
DNA 2: TGGTGGCTACGACGGGATT
B4: CAAGUGG (DNA:RNA)
RNA: B1 RNA with A25C, G27A, C29U, U30G, C31G
DNA 1: CAATCTGAATTCCGGTCTCCC
DNA 2: TGGTGGCTACGACGGGATT
B5: UUAAUUU (DNA:RNA)
RNA: B1 RNA with A25U, A26U, G27A, G28A, C29U, C31U
DNA 1: CAATCTGAATTCCGGTCTCCC
DNA 2: TGGTGGCTACGACGGGATT
B6: GAUCUGU (DNA:RNA)
RNA: B1 RNA with A25G, G27U, G28C, C29U, U30G, C31U
DNA 1: CAATCTGAATTCCGGTCTCCC
DNA 2: TGGTGGCTACGACGGGATT
B7: GCGCAUU (DNA:RNA)
RNA: B1 RNA with A25G, A26C, G28C, C29A, C31U
DNA 1: CAATCTGAATTCCGGTCTCCC
DNA 2: TGGTGGCTACGACGGGATT
B8: GUAUUCU (DNA:RNA)
RNA: GGGAGACCGGAAUUCAGAUUGUCCGUAUUCUUUAAAUCCCGUCGUAGCCACCA
DNA 1: CAATCTGAATTCCGGTCTCCC
DNA 2: TGGTGGCTACGACGGGATT
B9: GCAAGGA (DNA:RNA)
RNA: B8 RNA with U26C, U28A, U29G, C30G, U31A
DNA 1: CAATCTGAATTCCGGTCTCCC
DNA 2: TGGTGGCTACGACGGGATT
B10: UUGUGGG (DNA:RNA)
RNA: B8 RNA with G25U, A27G, U29G, C30G, U31G
DNA 1: CAATCTGAATTCCGGTCTCCC
DNA 2: TGGTGGCTACGACGGGATT
B11: CGGGCAG (DNA:RNA)
RNA: B1 RNA with A25C, A26G, U30A, C31G
DNA 1: CAATCTGAATTCCGGTCTCCC
DNA 2: TGGTGGCTACGACGGGATT
B12: CGGGAGC (DNA:RNA)
RNA: B1 RNA with A25C, A26G, C29A, U30G
DNA 1: CAATCTGAATTCCGGTCTCCC
DNA 2: TGGTGGCTACGACGGGATT
B13: GGUAAGC (DNA:RNA)
RNA: B1 RNA with A25G, A26G, G27U, G28A, C29A, U30G
DNA 1: CAATCTGAATTCCGGTCTCCC
DNA 2: TGGTGGCTACGACGGGATT
B14: CAGGCGA (DNA:RNA)
RNA: B1 RNA with A25C, U30G, C31A
DNA 1: CAATCTGAATTCCGGTCTCCC
DNA 2: TGGTGGCTACGACGGGATT
B15: GAAAUUC (DNA:RNA)
RNA: B1 RNA with A25G, G27A, G28A, C29U
DNA 1: CAATCTGAATTCCGGTCTCCC
DNA 2: TGGTGGCTACGACGGGATT
B16: UGAGAUC (DNA:RNA)
RNA: B1 RNA with A25U, A26G, G27A, C29A
DNA 1: CAATCTGAATTCCGGTCTCCC
DNA 2: TGGTGGCTACGACGGGATT
B17: CUCGGAG (DNA:RNA)
RNA: B1 RNA with A25C, A26U, G27C, C29G, U30A, C31G
DNA 1: CAATCTGAATTCCGGTCTCCC
DNA 2: TGGTGGCTACGACGGGATT
B18: GCGCCUU (DNA:RNA)
RNA: B1 RNA with A25G, A26C, G28C, C31U
DNA 1: CAATCTGAATTCCGGTCTCCC
DNA 2: TGGTGGCTACGACGGGATT
B19: UAAAUUC (DNA:RNA)
RNA: B1 RNA with A25U, G27A, G28A, C29U
DNA 1: CAATCTGAATTCCGGTCTCCC
DNA 2: TGGTGGCTACGACGGGATT
B20: CAUGUCG (DNA:RNA)
RNA: B1 RNA with A25C, G27U, C29U, U30C, C31G
DNA 1: CAATCTGAATTCCGGTCTCCC
DNA 2: TGGTGGCTACGACGGGATT
B21: GGGUACA (DNA:RNA)
RNA: B8 RNA with U26G, A27G, U29A, U31A
DNA 1: CAATCTGAATTCCGGTCTCCC
DNA 2: TGGTGGCTACGACGGGATT
B22: CACGACA (DNA:RNA)
RNA: B1 RNA with A25C, G27C, C29A, U30C, C31A
DNA 1: CAATCTGAATTCCGGTCTCCC
DNA 2: TGGTGGCTACGACGGGATT
B23: UGUCGGA (DNA:RNA)
RNA: GGGAGACCGGAAUUCAGAUUGUCCUGUCGGAUUAAAUCCCGUCGUAGCCACCA
DNA 1: CAATCTGAATTCCGGTCTCCC
DNA 2: TGGTGGCTACGACGGGATT
B24: AGUCCUC (DNA:RNA)
RNA: B1 RNA with A26G, G27U, G28C
DNA 1: CAATCTGAATTCCGGTCTCCC
DNA 2: TGGTGGCTACGACGGGATT
B25: CCGGGGG (DNA:RNA)
RNA: B1 RNA with A25C, A26C, C29G, U30G, C31G
DNA 1: CAATCTGAATTCCGGTCTCCC
DNA 2: TGGTGGCTACGACGGGATT
B26: AGAAAAA (DNA:RNA)
RNA: B23 RNA with U25A, U27A, C28A, G29A, G30A
DNA 1: CAATCTGAATTCCGGTCTCCC
DNA 2: TGGTGGCTACGACGGGATT
B27: UCACCAG (DNA:RNA)
RNA: B23 RNA with G26C, U27A, G29C, G30A, A31G
DNA 1: CAATCTGAATTCCGGTCTCCC
DNA 2: TGGTGGCTACGACGGGATT
B28: AUUGCGC (DNA:RNA)
RNA: B1 RNA with A26U, G27U, U30G
DNA 1: CAATCTGAATTCCGGTCTCCC
DNA 2: TGGTGGCTACGACGGGATT
B29: GGAAGAA (DNA:RNA)
RNA: B23 RNA with U25G, U27A, C28A, G30A
DNA 1: CAATCTGAATTCCGGTCTCCC
DNA 2: TGGTGGCTACGACGGGATT
B30: ACAGAUU (DNA:RNA)
RNA: B1 RNA with A26C, G27A, C29A, C31U
DNA 1: CAATCTGAATTCCGGTCTCCC
DNA 2: TGGTGGCTACGACGGGATT
B31: GAUAUAA (DNA:RNA)
RNA: B8 RNA with U26A, A27U, U28A, C30A, U31A
DNA 1: CAATCTGAATTCCGGTCTCCC
DNA 2: TGGTGGCTACGACGGGATT

For this assay, the target named is T1, RBFOX1 RRM RbFoxmut (Fox-RRM*). Kind of assay: EMSA; HiTS-Eq, 1 nM pool, 10 min; buffer printed only for the single-RNA assays: 10 mM Tris pH 7.5, 150 mM NaCl, 3.4 mM EDTA, 0.001% NP-40, 30 C. The conditions noted are these: tags: His6 N-terminal (pET28a); label: 5' 32P. In short, it runs like this:
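These values rest on relative association constants, computed from read-count changes of each RNA species versus the control reaction and normalised to the cognate motif. Reads came from free RNA recovered by 8% native PAGE after purified RbFox RRM (wild type or mutant) at increasing concentrations was equilibrated for 10 min in 50 µL with 1 nM of a 5′-radiolabelled pool with 7 randomized nucleotides and DNA-annealed flanks.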
Background: A gel shift assay detects complexes by their altered migration in electrophoresis.
B1: the binding signal is 0.0498 KA relative to UGCAUGU.

Turning to B2, the binding signal is 0.103 KA relative to UGCAUGU. As for B3, the figure is 0.106 KA relative to UGCAUGU. As for B4, the figure is 0.0554 KA relative to UGCAUGU; as for B5, 0.0824 KA relative to UGCAUGU. As for B6, the figure is 0.0827 KA relative to UGCAUGU. In the case of B7, the binding signal was 0.1 KA relative to UGCAUGU. Regarding B8, the binding signal is 0.0952 KA relative to UGCAUGU.

B9: the binding signal is 0.0471 KA relative to UGCAUGU. As for B10, the figure is 0.11 KA relative to UGCAUGU. As for B11, the binding signal is 0.109 KA relative to UGCAUGU. For the molecule B12, the binding signal is 0.11 KA relative to UGCAUGU. As for B13, the figure is 0.0645 KA relative to UGCAUGU. As for B14, the figure is 0.0541 KA relative to UGCAUGU; as for B15, 0.0469 KA relative to UGCAUGU; as for B16, 0.179 KA relative to UGCAUGU. As to B17, the binding signal is 0.12 KA relative to UGCAUGU. As for B18, the figure is 0.0675 KA relative to UGCAUGU; as for B19, 0.0551 KA relative to UGCAUGU. Turning to B20, the binding signal was 0.157 KA relative to UGCAUGU. For B21, the binding signal was 0.105 KA relative to UGCAUGU. As for B22, the figure is 0.0562 KA relative to UGCAUGU. As for B23, the figure is 0.0935 KA relative to UGCAUGU; as for B24, 0.045 KA relative to UGCAUGU. As for B25, the figure is 0.0847 KA relative to UGCAUGU.

With B26, the binding signal was 0.141 KA relative to UGCAUGU. As for B27, the figure is 0.104 KA relative to UGCAUGU; as for B28, 0.115 KA relative to UGCAUGU.

Turning to B29, the binding signal was 0.06 KA relative to UGCAUGU.

On to B30, for which the binding signal was 0.111 KA relative to UGCAUGU. On to B31, for which the binding signal is 0.0789 KA relative to UGCAUGU.
